According to the supplement of paper PMC3334620:
Whole data set: some 33,000 sequences, median “E-score (-0.5 to 0.5)” near -0.054, cut for the highest 2% near 0.35. The list shows a part of the results.

The sequences below were run against T1, Stb5 (UniProt P38699) (assay: PBM E-score (8-mer binding enrichment) (E-score (-0.5 to 0.5)); higher = stronger / more preferred TF binding; most listed sequences are background and not binding sites). Details: protein concentration: 200 nM; construct: GST-full length.
T1 sequence: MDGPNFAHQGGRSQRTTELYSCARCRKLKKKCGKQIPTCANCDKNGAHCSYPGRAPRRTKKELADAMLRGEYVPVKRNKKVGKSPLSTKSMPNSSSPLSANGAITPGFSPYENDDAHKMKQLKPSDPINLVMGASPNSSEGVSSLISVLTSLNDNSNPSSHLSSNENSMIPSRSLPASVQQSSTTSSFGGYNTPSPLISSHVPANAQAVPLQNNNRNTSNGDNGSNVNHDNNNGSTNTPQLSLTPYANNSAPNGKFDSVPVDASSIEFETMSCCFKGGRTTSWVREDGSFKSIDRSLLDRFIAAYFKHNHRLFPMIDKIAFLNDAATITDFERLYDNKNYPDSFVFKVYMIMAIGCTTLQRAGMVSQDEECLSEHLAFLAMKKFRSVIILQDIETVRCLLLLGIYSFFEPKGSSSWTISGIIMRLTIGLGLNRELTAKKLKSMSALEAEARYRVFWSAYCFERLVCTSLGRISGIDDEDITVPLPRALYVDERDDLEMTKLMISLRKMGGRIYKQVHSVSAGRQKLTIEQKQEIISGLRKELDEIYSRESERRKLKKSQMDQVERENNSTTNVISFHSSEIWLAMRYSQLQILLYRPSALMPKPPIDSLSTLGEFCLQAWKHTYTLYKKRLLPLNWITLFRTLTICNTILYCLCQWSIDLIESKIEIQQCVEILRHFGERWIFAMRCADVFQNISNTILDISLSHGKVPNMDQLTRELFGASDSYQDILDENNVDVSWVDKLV
Procedure: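 Universal 'all 10-mer' protein binding microarrays (Agilent AMADID 015681) probed with GST-tagged S. cerevisiae TFs (full-length or DBD) made by in vitro transcription/translation (PURExpress), about 100-200 nM. Bound TF was detected with fluorescent anti-GST. Each ungapped 8-mer (which stands for itself and its reverse complement) is scored by the PBM enrichment score (E-score), a modified Wilcoxon-Mann-Whitney statistic from -0.5 to +0.5, computed with the Universal PBM Analysis Suite. Scale: above 0.35 generally sequence-specific binding.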

| Sequence | PBM E-score |
| --- | --- |
| GCTGGCCA | -0.165 |
| ACAGACAA | -0.131 |
| CCTACTTA | -0.16 |
| AGACGGGC | 0.248 |
| AAGTCTCT | -0.338 |
| GAGCTCAC | -0.108 |
| CAATGTGA | -0.186 |
| ATCTACAG | -0.128 |
| TATGCGGA | 0.182 |
| ACGGATTC | 0.139 |
| CGCACGCA | 0.0766 |
| AGCTCGGA | -0.0221 |
| CAGGGACA | -0.216 |
| GTATTTCA | -0.0614 |
| AGTGTAGA | -0.248 |
| TACCCCTA | -0.156 |
| CGCAAGCG | -0.00054 |
| GGTCGGAC | 0.369 |
| AGCCGTTC | 0.0213 |
| TAGATCTA | 0.0243 |
| ATATCAAA | 0.0172 |
| CTGCATTC | -0.386 |

| Sequence | PBM E-score |
| --- | --- |
| AAGTCGTC | -0.139 |
| CAACACAC | -0.151 |
| GACAGAGC | -0.0684 |
| AGGGAAAA | 0.0254 |
| AAAAAGGG | -0.145 |
| AGAGGGTC | -0.139 |
| AACTGGGA | -0.197 |
| GCTACCCA | -0.0864 |
| ATAAGCCC | 0.406 |
| GGATACGA | -0.106 |
| ATATACGG | 0.0992 |
| CCCCAAAA | -0.116 |
| CCTAATAA | -0.0384 |
| CTTCGTAA | -0.185 |
| CATCTAGG | -0.139 |
| ATGATAAA | 0.0679 |
| CCTCAGGA | -0.265 |
| CCTTCTGA | -0.193 |
| ATCTAGAA | -0.13 |
| ACTCTTTC | -0.0355 |
| GCTCGCAA | -0.294 |
| AAAACCCA | -0.0369 |

| Sequence | PBM E-score |
| --- | --- |
| ACTGGGTG | -0.289 |
| ACTCGATG | -0.179 |
| CGCAGGGA | -0.14 |
| CAGGCCTG | -0.172 |
| AGACCGAA | 0.236 |
| GAATAGAA | -0.13 |
| CTGCTAAG | -0.102 |
| GATATCGC | 0.025 |
| ACGCATGG | -0.139 |
| ACGTACGG | 0.0813 |
| GTGGGTCA | -0.168 |
| AAGGCATA | -0.31 |
| AAGGCAGT | -0.286 |
| AAGCCGTA | -0.0329 |
| CACCTGTA | -0.208 |
| GGAGGCAC | 0.113 |
| ACTTACCG | 0.195 |
| ATACAAAG | 0.0452 |
| ACACAACG | -0.0277 |
| AATCATTC | -0.155 |
| ATCGGTGC | 0.324 |
| AACTCGCC | -0.191 |

| Sequence | PBM E-score |
| --- | --- |
| ACTAGACC | 0.0765 |
| CGAGGGCA | -0.123 |
| GCACACGA | -0.203 |
| ATCGCTAA | -0.0771 |
| GCTCTGTA | -0.13 |
| AGTAAAAA | -0.039 |
| ATCTCCTC | -0.0121 |
| CTACGCTC | -0.0412 |
| AGTAGGGA | -0.175 |
| ACGGGGGG | 0.0225 |
| AATATTCC | 0.14 |
| ACCACCGT | 0.354 |
| AATGAACC | -0.0171 |
| CGGCGCAC | 0.24 |
| CCGAATGA | 0.172 |
| AGCCTCAC | -0.269 |
| GCGCCCCC | -0.0157 |
| CCGTCGAG | 0.23 |
| ATTTTGCG | -0.0255 |
| AAATAATT | 0.0628 |
